PubChem BioAssay AID504832 (National Center for Advancing Translational Sciences (NCATS), 2011)
Out of some 310,000 compounds screened, about 18,000 (5.8%) were called active. This list was built around the results that the source calls inconclusive (neither active nor inactive); the mix of calls is not that of the screen. Calls come from the whole dose curve; as a rule, active = well fitted inhibition curve with a large enough effect; inconclusive = small, poorly fitted or top-dose-only effect, or another doubt; inactive = no such curve, though single readings can be large or run the other way. No potency is given beside an inconclusive call; the fits are too rough.

Test: Primary qHTS for delayed death inhibitors of the malarial parasite plastid, 48 hour incubation
Conditions: P. falciparum luciferase growth in erythrocytes; series mostly up to 28.7 µM; activity change, negative = inhibition: at the top concentration
Outline: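 Read-out is firefly luciferase luminescence from an integrated reporter in P. falciparum, so falling signal marks reduced parasite growth. Infected erythrocytes were at 2% hematocrit and 0.1% parasitemia (final) in Albumax-supplemented RPMI 1640.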
% is set by controls: 0 for no effect and ±100 for the full control effect; potency is the fitted concentration of half-maximal effect; tags give direction and shape of the fitted curve.

Row | Structure (SMILES) | Potency | activity change, negative = inhibition
1 | COc1ccc(C=O)cc1CN1C(=O)c2ccccc2C1=O | inconclusive [inhibitor, full curve, poor fit] | –
2 | CCCCC(=O)O[C@]1(C(=O)CO)CC[C@H]2[C@@H]3CCC4=CC(=O)CC[C@]4(C)[C@H]3[C@@H](O)C[C@@]21C | inconclusive [inhibitor, partial curve, poor fit] | –
3 | CCOC(=O)c1cccc(N2C(=O)C3C(C2=O)C2C=CC3C23CC3)c1 (stereo not given) | – | inactive: -13.1%
4 | CC(=O)c1ccc(N2CCN(c3ccc(S(=O)(=O)NCCCN(C)C)cc3[N+](=O)[O-])CC2)cc1 | inconclusive [inhibitor, partial curve] | –
5 | Cc1cc(CN2CCCC(C(=O)Nc3cccc(-n4cccn4)c3)C2)cc(C)c1O (stereo not given) | inconclusive [inhibitor, partial curve] | –
6 | CC1CCN(c2nc3ccccc3nc2C(C#N)C(=O)OC2CCCCC2)CC1 (stereo not given) | – | inactive: 18.8%
7 | CC1CCCCN1CC(O)COc1ccc(OCC(O)CN2CCCCC2C)cc1 (stereo not given) | inconclusive [inhibitor, single point] | –
8 | N#CSCC(=O)N1c2ccccc2CCc2ccccc21 | inconclusive [inhibitor, single point] | –
9 | CC(C)CCn1c(N)c(S(=O)(=O)c2cccs2)c2nc3ccccc3nc21 | inconclusive [inhibitor, single point] | –
10 | COC(=O)C1=C(C)Nc2nnnn2C1c1ccc(Cl)cc1Cl (stereo not given) | active: 4.65 µM | –
11 | COCCC1CCCCN1C(=O)c1cccc(OC2CCN(C3CCCC3)CC2)c1 (stereo not given) | – | inactive: 2.18%
12 | Cc1ccc(F)cc1NCC(=O)Nc1ccc(Br)cc1 | – | inactive: 59.4%
13 | Oc1c(Cl)cc(Cl)cc1/C=N/NC(=S)NC1CC2C=CC1C2 (stereo not given) | active: 0.828 µM | –
14 | Cc1ccc(C(=O)OCc2nc3ccccc3s2)o1 | – | inactive: 47.5%
15 | CCCc1sc(N/N=C/c2ccccn2)nc1-c1ccc(Br)cc1 | active: 1.65 µM | –
16 | COc1ccccc1CNC(=O)c1sccc1-c1ccccc1 | inconclusive [inhibitor, single point] | –
17 | O=C(Nc1cccc(F)c1)Nc1ccc2c(c1)OCO2 | – | inactive: 94.4%
18 | Cc1ccc(C(=O)N(Cc2nc3ccccc3c(=O)[nH]2)C2CCCC2)cc1 | inconclusive [inhibitor, single point] | –
19 | O=C(CN(Cc1ccccc1)C(=O)CCC(=O)Nc1nccs1)NCc1ccccc1 | – | inactive: -2.34%
20 | O=C(CN1CCN(S(=O)(=O)/C=C/c2ccccc2)CC1)NC(=O)NCc1ccco1 | inconclusive [inhibitor, single point] | –
21 | Cc1ccc(CN2C(=O)CN=C(c3ccccc3)c3ccccc32)cc1 | inconclusive [inhibitor, single point] | –
22 | O=C(CSCc1ccc(F)cc1)N1CCN(c2ccccc2)CC1 | – | inactive: 31.2%
23 | O=C(CCc1ccccc1)NCC(c1ccco1)N1CCc2ccccc21 (stereo not given) | inconclusive [inhibitor, partial curve] | –
24 | O=C(NC(=S)Nc1cccnc1Cl)c1ccco1 | – | inactive: 144%
25 | Cc1ccnc(N2CCC(C(=O)Nc3cccc(C(F)(F)F)c3)CC2)n1 | inconclusive [inhibitor, partial curve, poor fit] | –

Row | Structure (SMILES) | Potency | activity change, negative = inhibition
26 | c1ccc2oc(CCc3nc4ccccc4o3)nc2c1 | – | inactive: 36.4%
27 | Cc1nnn(C23CC4CC(CC(CC(=O)Nc5cccc(F)c5)(C4)C2)C3)n1 | inconclusive [inhibitor, single point] | –
28 | CC(Sc1nnc(N)s1)C(=O)NC1CCCCC1C (stereo not given) | inconclusive [inhibitor, single point] | –
29 | O=[N+]([O-])c1ccc(Cl)cc1N1CCCC1 | inconclusive [inhibitor, partial curve] | –
30 | CSc1ccccc1C(=O)NC1CCCc2ccccc21 (stereo not given) | – | inactive: -13.2%
31 | COc1cc(/C=N/NC(=O)c2cc3ccccc3[nH]2)ccc1O | inconclusive [inhibitor, single point] | –
32 | CCSCCc1nnc(NC(=O)Nc2cccc(C(F)(F)F)c2)s1 | active: 5.22 µM | –
33 | O=S(=O)(c1ccc(N2CCN(CCO)CC2)nc1)N1CCOCC1 | – | inactive: 13.1%
34 | CCOC(=O)c1c(C)[nH]c(C(=O)N2CCc3cc(OC)c(OC)cc3C2)c1C | – | inactive: -23.4%
35 | CCc1cccc2c3c([nH]c12)C(CC)(CC(=O)O)OCC3 (stereo not given) | inconclusive [inhibitor, partial curve, poor fit] | –
36 | O=C(CCn1nc(-c2ccc(Cl)cc2)ccc1=O)N1CCN(c2ccccc2)CC1 | inconclusive [inhibitor, single point] | –
37 | O=C(Nc1cc(-c2ccccc2)[nH]n1)c1ccccc1 | – | inactive: 60.8%
38 | CC(NS(=O)(=O)c1ccc([N+](=O)[O-])cc1)C(c1cccs1)N1CCOCC1 (stereo not given) | inconclusive [inhibitor, partial curve, poor fit] | –
39 | Fc1cccc(CSc2nnc3c(n2)[nH]c2ccccc23)c1 | inconclusive [inhibitor, full curve] | –
40 | CCC(=O)c1ccc(OCC(=O)N(CC)CC(=O)Nc2ccccc2OC)cc1 | inconclusive [inhibitor, single point] | –
41 | Cc1cccc(Cn2c(=O)n(CCCC(=O)NCc3ccco3)c(=O)c3ccccc32)c1 | inconclusive [inhibitor, single point] | –
42 | O=C(NCc1cccnc1)NC1CC(=O)N(c2ccc3c(c2)OCCO3)C1 (stereo not given) | – | inactive: 3.59%
43 | COCCn1c(SCC(=O)c2[nH]c(C)c(C(C)=O)c2C)nc2ccccc21 | inconclusive [inhibitor, single point] | –
44 | CCOC(=O)N1CCC(NC(=O)CSCc2nc(-c3ccc(OCC)cc3)oc2C)CC1 | active: 11.7 µM | –
45 | O=C(NC1CCCC1)C(c1ccccc1)N(C(=O)c1ccco1)C1CCCC1 (stereo not given) | inconclusive [inhibitor, single point] | –
46 | Cc1c(C=O)c2ccccc2n1Cc1ccc([N+](=O)[O-])cc1 | inconclusive [inhibitor, single point] | –
47 | Cc1cccc(-c2csc(NC(=O)c3cnccn3)c2C(=O)OC(C)C)c1 | inconclusive [inhibitor, single point] | –
48 | Cc1ccc(NC(=O)CCC(=O)OCCCC(F)(F)C(F)(F)F)cc1 | – | inactive: 92.4%
49 | Cc1ccc(Oc2ccc(OCC(=O)NC(CC(C)C)C(=O)O)cc2)cc1 (stereo not given) | – | inactive: -15.8%
50 | Cc1ccccc1CN1CCc2c(OCC(=O)N3CCCc4ccccc43)cccc2C1=O | inconclusive [inhibitor, partial curve] | –

Row | Structure (SMILES) | Potency | activity change, negative = inhibition
51 | CCOc1cc(C(=O)N2CCN(c3ccc(C(C)=O)cc3)CC2)cc(OCC)c1OCC | inconclusive [inhibitor, partial curve, poor fit] | –
52 | O=C(NCc1ccccc1)c1nc2ccccc2s1 | inconclusive [inhibitor, single point] | –
53 | CCN(CC)C(=O)CC(c1ccc(N(C)C)cc1)c1c(O)cc(OC)cc1OC (stereo not given) | inconclusive [inhibitor, partial curve] | –
54 | COC(=O)c1ccccc1NC(=O)CSCC(=O)Nc1ccc(F)cc1 | – | inactive: 7.54%
55 | CSc1ncccc1C(=O)OCC(=O)NCc1ccc2c(c1)OCO2 | – | inactive: -23.5%
56 | O=C(COc1nsnc1N1CCOCC1)Nc1cccc(Cl)c1 | inconclusive [inhibitor, partial curve, poor fit] | –
57 | CCOC(=O)Cn1nc(NC(=O)c2ccc(C(=O)OC)cc2)cc1C | – | inactive: 27.5%
58 | Cc1cccc(NC(=S)NNC(=S)NC2CCCCC2)c1C | – | inactive: 54.8%
59 | CC(CNC(=O)c1cccs1)c1ccc([N+](=O)[O-])cc1 (stereo not given) | inconclusive [inhibitor, partial curve] | –
60 | Cc1ncc([N+](=O)[O-])n1S(=O)(=O)c1cc(Br)ccc1Br | – | inactive: -0.906%
61 | O=C(Nc1ccccc1)c1nc2ccccc2s1 | – | inactive: 202%
62 | O=C(/C=C/c1ccccc1[N+](=O)[O-])N1CCc2ccccc2C1 | – | inactive: 42.4%
63 | C/C=C(/C)C(=O)O[C@@H]1c2c(ccc3ccc(=O)oc23)OC(C)(C)[C@@H]1OC(=O)/C(C)=C\C | active: 6.57 µM | –
64 | Cc1cccc(NC(=O)c2cccc(OC(=S)N3CCOCC3)c2)c1 | inconclusive [inhibitor, single point] | –
65 | Cc1cc(C)cc(NC(=O)COC(=O)CC2CCCC2)c1 | – | inactive: -17.2%
66 | COc1ccccc1CNC(=O)C1CCC(CNS(=O)(=O)c2ccc(C)cc2)CC1 (stereo not given) | inconclusive [inhibitor, partial curve, poor fit] | –
67 | CCN(CC)c1ccc2cc(-c3nc4ccccc4[nH]3)c(=O)oc2c1 | – | inactive: 134%
68 | CC1CC(C)CN(CCCNS(=O)(=O)c2ccc3c(c2)CCN3C(=O)C2CC2)C1 (stereo not given) | inconclusive [inhibitor, single point] | –
69 | CCN(CC)C(=O)c1sc(NC(=O)c2cc(-c3ccc(C)s3)nc3ccccc23)c(C(=O)OC)c1C | inconclusive [inhibitor, full curve, poor fit] | –
70 | CCOC(=O)CSc1nc2c(sc(=S)n2-c2ccccc2OC)c(=O)n1-c1ccccc1OC | active: 11.7 µM | –
71 | O=C(COC(=O)c1cnc(Cl)c(Cl)c1)NCc1cccs1 | – | inactive: 0%
72 | COc1ccc(OC)c(S(=O)(=O)N2CCC(C(=O)N(C)Cc3ccccc3)CC2)c1 | inconclusive [inhibitor, partial curve] | –
73 | O=C(O)c1cc(-c2ccc(/C=C3/SC(=S)N(Cc4ccccc4)C3=O)o2)ccc1Cl | – | inactive: 35.5%
74 | COCCN(Cc1cn(C)nc1-c1ccccc1F)C(C)C | – | inactive: 60.2%
75 | Cc1ccc(-n2cc(CN3CCNC(=O)CC3)c(-c3ccc(F)cc3)n2)cc1 | inconclusive [inhibitor, single point] | –
